# Reference: PubChem BioAssay (NCATS)
# Where “and” joins values, the source holds several entries; their conditions need not be identical. Identical values can stand only once. The inconclusive results got no clear call from the source; some entries with a clear call stand among them for comparison. For some of these results: Potencies of inconclusive entries are doubtful fits and often do not repeat. Calls of active or inactive are those of the source. Calls come from the whole dose curve; as a rule, active = well fitted curve in the direction sought with a large enough effect; inconclusive = small, poorly fitted or top-dose-only effect, or another doubt; inactive = no such curve, though single readings can be large; an effect the other way counts as inactive or inconclusive.
# How the values were obtained:
# [1] = qHTS for Inhibitors of the vitamin D receptor (VDR): Hit Validation using a Texas Red Assay (AID 602201); note: potency is the fitted concentration of half-maximal effect
# Outline: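 After a 2-hour room-temperature incubation, polarization of Texas-Red emission was read (Ex 595 nm/Em 615 nm). Final mix contained 7 nM Texas Red, 1.5 uM VDR-LBD and LG19078.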
# [2] = qHTS for Inhibitors of the vitamin D receptor (VDR): Hit Validation using a Cytotoxicity Assay (AID 602204); note: nearly all actives have a fitted effect of over 75% in size;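 for Potency: cells co-treated with VDR agonist LG190178 at 300 nM; potency is the fitted concentration of half-maximal effect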
# Outline: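 Compounds stayed on cells (20,000/well, plated 4 hours earlier) for 18 hours. Viability then taken as ATP content by CellTiter-Glo, read as luminescence after 30 minutes. Controls: high-concentration cycloheximide (positive), DMSO (negative).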
# [3] = target: Vitamin D3 receptor (Homo sapiens) (UniProt P11473); experiment: qHTS for Inhibitors of the vitamin D receptor (VDR): Hit Validation using a Beta-Lactamase Assay (AID 602202); note: potency is the fitted concentration of half-maximal effect
# Sequence of UniProt P11473 (P11473 whole entry, looked up, the tested form may be a part): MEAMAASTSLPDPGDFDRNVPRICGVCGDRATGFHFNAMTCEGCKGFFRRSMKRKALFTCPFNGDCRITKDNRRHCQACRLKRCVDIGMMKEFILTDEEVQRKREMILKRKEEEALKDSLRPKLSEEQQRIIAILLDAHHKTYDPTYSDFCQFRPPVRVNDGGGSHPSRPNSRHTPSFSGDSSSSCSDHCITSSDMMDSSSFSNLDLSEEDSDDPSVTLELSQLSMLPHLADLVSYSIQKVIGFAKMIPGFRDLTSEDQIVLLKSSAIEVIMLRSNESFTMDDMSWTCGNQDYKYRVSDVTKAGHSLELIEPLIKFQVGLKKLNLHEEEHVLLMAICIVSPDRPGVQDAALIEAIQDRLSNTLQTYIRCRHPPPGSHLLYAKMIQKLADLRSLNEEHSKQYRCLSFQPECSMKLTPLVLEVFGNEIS
# Outline: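 Beta-lactamase reporter read-out (447 nm emission of cleaved FRET substrate, 2 h) after 18 h compound exposure of HEK293 cells carrying a VDR-GAL4 fusion and UAS reporter, stimulated with LG190178.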
# [4] = target: Bifunctional 3'-5' exonuclease/ATP-dependent helicase WRN (Homo sapiens) (UniProt Q14191); experiment: qHTS for Inhibitors of WRN Helicase: Confirmatory Assay for Cherry-picked Compounds. (AID 720497); note: potency is the fitted concentration of half-maximal effect; nearly all actives have a fitted effect of over 65% in size
# Sequence of UniProt Q14191 (Q14191 whole entry, looked up): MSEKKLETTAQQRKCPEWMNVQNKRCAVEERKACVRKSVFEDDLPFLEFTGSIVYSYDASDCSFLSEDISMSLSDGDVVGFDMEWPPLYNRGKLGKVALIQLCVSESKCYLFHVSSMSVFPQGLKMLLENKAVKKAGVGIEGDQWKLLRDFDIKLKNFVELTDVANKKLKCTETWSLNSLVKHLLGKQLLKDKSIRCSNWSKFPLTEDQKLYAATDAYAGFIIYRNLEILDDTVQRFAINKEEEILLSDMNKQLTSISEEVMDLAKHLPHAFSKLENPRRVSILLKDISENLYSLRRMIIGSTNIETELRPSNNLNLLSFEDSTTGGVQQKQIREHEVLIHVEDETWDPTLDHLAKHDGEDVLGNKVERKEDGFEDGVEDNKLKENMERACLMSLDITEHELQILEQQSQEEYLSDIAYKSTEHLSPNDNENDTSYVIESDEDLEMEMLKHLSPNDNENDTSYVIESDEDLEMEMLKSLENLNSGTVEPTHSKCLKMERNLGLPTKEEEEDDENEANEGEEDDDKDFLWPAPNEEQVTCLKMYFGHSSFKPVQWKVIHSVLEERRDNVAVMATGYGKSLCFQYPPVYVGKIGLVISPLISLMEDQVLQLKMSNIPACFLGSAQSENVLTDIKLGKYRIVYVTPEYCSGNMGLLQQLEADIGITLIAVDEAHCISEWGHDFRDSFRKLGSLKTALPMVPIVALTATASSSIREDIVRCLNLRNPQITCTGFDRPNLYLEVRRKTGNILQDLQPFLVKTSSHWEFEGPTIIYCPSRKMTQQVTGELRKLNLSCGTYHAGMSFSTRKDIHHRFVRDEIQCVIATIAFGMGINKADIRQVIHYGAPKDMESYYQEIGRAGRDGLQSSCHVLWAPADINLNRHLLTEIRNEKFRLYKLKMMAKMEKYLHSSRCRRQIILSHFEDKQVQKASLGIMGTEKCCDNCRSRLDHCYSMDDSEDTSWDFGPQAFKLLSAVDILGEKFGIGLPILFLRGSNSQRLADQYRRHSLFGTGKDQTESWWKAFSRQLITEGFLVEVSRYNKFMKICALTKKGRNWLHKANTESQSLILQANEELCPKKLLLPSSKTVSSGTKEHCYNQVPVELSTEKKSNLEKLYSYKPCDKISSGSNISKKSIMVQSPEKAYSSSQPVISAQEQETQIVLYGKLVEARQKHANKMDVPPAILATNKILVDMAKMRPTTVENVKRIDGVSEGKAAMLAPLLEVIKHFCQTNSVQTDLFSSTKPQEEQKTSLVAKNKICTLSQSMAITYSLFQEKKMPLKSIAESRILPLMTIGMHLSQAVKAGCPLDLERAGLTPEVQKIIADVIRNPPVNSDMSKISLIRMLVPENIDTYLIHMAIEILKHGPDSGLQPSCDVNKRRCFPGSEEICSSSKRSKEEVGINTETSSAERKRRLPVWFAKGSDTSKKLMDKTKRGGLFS
# Outline: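 WRN (20 nM) was preincubated 15 min at RT with compound, then started with 100 nM forked duplex oligonucleotide and 2 mM ATP. Unwinding was read kinetically by red fluorescence (ex 525/em 598 nm), normalized to enzyme-free and uninhibited controls.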
# [5] = qHTS for Inhibitors of WRN Helicase: Thiazole Orange DNA Binding Counterscreen (AID 720499);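 note: drop in dye fluorescence marks compound binding to DNA; nearly all actives have a fitted effect of over 60% in size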
# Outline: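 Counterscreen to remove nonspecific DNA binders from WRN helicase hits. Compounds were incubated 15 min at room temperature with 50 nM DNA and 100 nM ThO, then fluorescence was recorded (480 nm excitation, 530 nm emission).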
# [6] = target: RecQ-like DNA helicase BLM (Homo sapiens) (UniProt P54132); experiment: qHTS for Inhibitors of WRN Helicase: BLM Helicase Counterscreen for WRN Inhibitors (AID 720503); conditions: Recombinant BLM helicase DNA unwinding, red fluorescence; series mostly up to 57.1 µM; note: potency is the fitted concentration of half-maximal effect; nearly all actives have a fitted effect of over 60% in size
# Sequence of UniProt P54132 (P54132 whole entry, looked up): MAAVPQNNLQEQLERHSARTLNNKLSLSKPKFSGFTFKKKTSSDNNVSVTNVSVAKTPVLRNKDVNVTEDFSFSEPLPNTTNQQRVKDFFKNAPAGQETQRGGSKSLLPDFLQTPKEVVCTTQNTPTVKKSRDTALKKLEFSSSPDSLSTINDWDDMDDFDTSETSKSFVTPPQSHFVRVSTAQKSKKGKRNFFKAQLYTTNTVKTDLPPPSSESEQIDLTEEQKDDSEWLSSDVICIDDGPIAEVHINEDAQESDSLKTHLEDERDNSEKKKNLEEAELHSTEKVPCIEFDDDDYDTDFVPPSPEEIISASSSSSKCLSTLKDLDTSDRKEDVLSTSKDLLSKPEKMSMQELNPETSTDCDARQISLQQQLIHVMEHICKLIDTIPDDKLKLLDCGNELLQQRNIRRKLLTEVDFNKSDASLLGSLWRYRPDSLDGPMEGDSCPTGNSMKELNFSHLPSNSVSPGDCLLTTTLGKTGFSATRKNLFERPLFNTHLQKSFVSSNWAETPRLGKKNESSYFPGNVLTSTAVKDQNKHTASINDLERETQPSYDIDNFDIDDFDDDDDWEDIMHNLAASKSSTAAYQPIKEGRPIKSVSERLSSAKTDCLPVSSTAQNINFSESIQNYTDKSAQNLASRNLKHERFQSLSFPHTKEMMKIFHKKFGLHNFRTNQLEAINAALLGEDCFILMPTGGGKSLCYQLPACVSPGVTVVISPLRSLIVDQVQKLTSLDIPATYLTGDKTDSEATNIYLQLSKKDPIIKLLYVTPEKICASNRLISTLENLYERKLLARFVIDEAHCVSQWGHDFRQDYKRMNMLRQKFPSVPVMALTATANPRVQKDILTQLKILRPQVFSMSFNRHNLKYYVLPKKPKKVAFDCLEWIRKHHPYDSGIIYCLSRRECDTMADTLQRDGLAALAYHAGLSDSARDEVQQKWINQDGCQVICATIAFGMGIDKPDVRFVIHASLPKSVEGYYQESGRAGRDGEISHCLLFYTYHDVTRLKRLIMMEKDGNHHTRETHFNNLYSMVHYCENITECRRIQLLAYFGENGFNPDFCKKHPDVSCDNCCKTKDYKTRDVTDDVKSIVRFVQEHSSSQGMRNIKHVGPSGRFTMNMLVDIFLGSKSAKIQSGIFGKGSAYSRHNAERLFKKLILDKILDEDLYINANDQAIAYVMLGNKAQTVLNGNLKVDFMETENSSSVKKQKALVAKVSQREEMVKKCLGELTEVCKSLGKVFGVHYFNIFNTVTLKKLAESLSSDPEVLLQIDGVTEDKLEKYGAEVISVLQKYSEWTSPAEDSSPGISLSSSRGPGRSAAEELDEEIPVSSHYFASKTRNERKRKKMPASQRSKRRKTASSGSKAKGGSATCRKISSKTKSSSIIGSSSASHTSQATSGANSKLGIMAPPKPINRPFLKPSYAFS
# Outline: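 1 nM BLM, Tris pH 8.0/NaCl/MgCl2/DTT/Tween-20; cpd preinc 15 min RT; start w/ 100 nM DNA + 2 mM ATP final; fluorescence (ex 525/em 598) two reads 15 min apart; normalized to enzyme-free and DMSO controls.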
# [7] = target: DNA polymerase eta (Homo sapiens) (UniProt Q9Y253); experiment: qHTS for Inhibitors of Polymerase Eta: Confirmatory Assay for Cherry-picked Compounds (AID 720502); conditions: Pol eta primer extension, TAMRA/BHQ fluorescence, 10 min; note: potency is the fitted concentration of half-maximal effect
# Sequence of UniProt Q9Y253 (Q9Y253 whole entry, looked up): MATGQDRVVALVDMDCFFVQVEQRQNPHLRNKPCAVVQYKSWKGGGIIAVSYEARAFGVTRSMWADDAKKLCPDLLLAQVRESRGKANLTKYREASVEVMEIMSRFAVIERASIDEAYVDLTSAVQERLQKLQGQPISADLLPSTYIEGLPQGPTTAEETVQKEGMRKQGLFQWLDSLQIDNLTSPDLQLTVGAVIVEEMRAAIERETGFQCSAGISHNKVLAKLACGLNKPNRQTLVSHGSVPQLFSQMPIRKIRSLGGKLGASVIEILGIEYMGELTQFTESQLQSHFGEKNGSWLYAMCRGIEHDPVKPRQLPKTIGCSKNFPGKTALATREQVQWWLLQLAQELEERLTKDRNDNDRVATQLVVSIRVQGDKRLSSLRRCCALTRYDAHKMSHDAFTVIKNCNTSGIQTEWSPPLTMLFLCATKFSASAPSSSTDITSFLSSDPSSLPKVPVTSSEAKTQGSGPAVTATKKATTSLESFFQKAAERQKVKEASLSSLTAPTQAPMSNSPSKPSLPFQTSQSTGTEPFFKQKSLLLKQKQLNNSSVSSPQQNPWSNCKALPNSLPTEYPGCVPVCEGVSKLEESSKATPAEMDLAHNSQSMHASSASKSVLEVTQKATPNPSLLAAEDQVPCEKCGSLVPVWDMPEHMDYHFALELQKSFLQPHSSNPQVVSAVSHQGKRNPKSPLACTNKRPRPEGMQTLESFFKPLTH
# Outline: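 Readout: TAMRA dequenching, ex 525/em 598 nm, read at 0 and 10 min. Enzyme: 10 nM human Pol eta, preincubated with compound 15 min RT. Substrate: 50 nM final annealed primer/reporter/template duplex.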
# Tags give direction and shape of the fitted curve.
smiles,measurement,setting,value
Cc1cccc([C@H]2[C@@H]3C=CC[C@@H](C)[C@@H]3C(=O)N2Cc2ccccc2)c1,Potency,[1],"inconclusive: 39.8 µM [inhibitor, single point]"
same,Potency,[2],active: 23.8 µM
Cc1ccc(C(=O)/C=C/C(=O)O)cc1,Potency,[1],"inconclusive: 3.55 µM [inhibitor, full curve, poor fit]"
same,Potency,[2],"inconclusive: 5.62 µM [rising, full curve, poor fit]"
CS(=O)(=O)c1ncc(Cl)c(C(=O)N(Cc2ccc(Cl)cc2)Cc2ccco2)n1,Potency,[1],"inconclusive: 39.8 µM [inhibitor, single point]"
same,Potency,[2],active: 18.9 µM
Nc1c(C(=O)N2CCCCC2)sc(=S)n1-c1ccccc1,Potency,[1],active: 35.5 µM
same,Potency,[2],inactive
CC(C)(C)c1ccc(C(=O)CC(Sc2ccc(Cl)cc2)C(=O)O)cc1 (stereo not drawn),Potency,[1],"inconclusive: 3.16 µM [inhibitor, full curve, poor fit]"
same,Potency,[2],"inconclusive: 18.4 µM [cytotoxic, partial curve]"
O=C(/C=C/c1cccnc1)c1ccc(F)c(F)c1,Potency,[1],"inconclusive: 3.55 µM [inhibitor, full curve]"
same,Potency,[3],"inconclusive: 29.1 µM [inhibitor, single point]"
same,Potency,[2],"inconclusive: 31.6 µM [cytotoxic, single point]"
CC1C/C(=C/c2ccncc2)C(=O)/C(=C/c2ccncc2)C1 (stereo not drawn),Potency,[1],"inconclusive: 2.82 µM [inhibitor, full curve]"
same,Potency,[2],active: 20.6 µM
C=CCn1cccc(/C=C/C(=O)c2ccc(C(C)(C)C)cc2)c1=S,Potency,[1],"inconclusive: 11.2 µM [inhibitor, partial curve]"
same,Potency,[3],"inconclusive: 18.4 µM [inhibitor, single point]"
same,Potency,[2],"inconclusive: 21.2 µM [cytotoxic, single point]"
N#CC1=C(N)C(C#N)(C#N)C(c2cccnc2)C2CC(c3ccccc3)CC=C12 (stereo not drawn),Potency,[1],"inconclusive: 3.16 µM [inhibitor, full curve]"
same,Potency,[3],"inconclusive: 25.9 µM [inhibitor, single point]"
same,Potency,[2],inactive
COc1ccc(C(=O)/C=C/C(=O)N(CC(=O)NC2CCCCC2)Cc2ccc(F)cc2)c(O)c1,Potency,[1],"inconclusive: 1.58 µM [inhibitor, full curve]"
same,Potency,[2],active: 9.2 µM
COC1=C(C)C(O)=C(C(=O)/C=C/c2ccccc2)C(=O)C1(C)C,Potency,[1],"inconclusive: 11.2 µM [inhibitor, partial curve]"
same,Potency,[3],"inconclusive: 29.1 µM [inhibitor, single point]"
same,Potency,[2],inactive
Cc1cccc2c1N(Cc1ccccc1OCCC(C)C)C(=O)C2=O,Potency,[1],active: 12.6 µM
same,Potency,[2],inactive
Cc1cccc(CS(=O)(=O)c2ncc(Cl)c(C(=O)Nc3nnc(C(C)C)s3)n2)c1,Potency,[1],"inconclusive: 39.8 µM [inhibitor, partial curve, poor fit] and inconclusive: 3.16 µM [inhibitor, single point]"
same,Potency,[2],active: 23.8 µM and active: 13 µM
Cc1ccc(C(C[N+](=O)[O-])n2nc(C)cc2C)cc1 (stereo not drawn),Potency,[1],"inconclusive: 10 µM [inhibitor, partial curve]"
same,Potency,[3],"inconclusive: 18.4 µM [inhibitor, single point]"
same,Potency,[2],"inconclusive: 12.6 µM [cytotoxic, partial curve, poor fit]"
Oc1cc2c(cc1C(c1ccc(Br)cc1)N1CCCC1)OCO2 (stereo not drawn),Potency,[1],"inconclusive: 2.82 µM [inhibitor, full curve, poor fit]"
same,Potency,[3],inactive
same,Potency,[2],"inconclusive: 35.5 µM [cytotoxic, single point]"
same,Potency,[4],"inconclusive: 15.2 µM [inhibitor, partial curve]"
same,Potency,[5],inactive
same,Potency,[6],"inconclusive: 6.81 µM [inhibitor, full curve]"
O=[N+]([O-])c1c(Nc2ccc(O)cc2)cc(Cl)c2nonc12,Potency,[1],active: 3.16 µM
same,Potency,[3],"inconclusive: 8.2 µM [inhibitor, single point]"
same,Potency,[4],"inconclusive: 24.1 µM [inhibitor, partial curve]"
same,Potency,[7],"inconclusive: 84.9 µM [inhibitor, single point]"
same,Potency,[6],"inconclusive: 21.5 µM [inhibitor, partial curve]"
Cc1cccc(/C=C/C(=O)c2ccc([N+](=O)[O-])o2)c1,Potency,[1],active: 1.78 µM
same,Potency,[2],"inconclusive: 26.7 µM [cytotoxic, single point]"
O=c1nc(/C=C/c2cc([N+](=O)[O-])ccc2Cl)cc(C(F)(F)F)[nH]1,Potency,[1],active: 3.55 µM
same,Potency,[3],"inconclusive: 20.6 µM [inhibitor, single point]"
same,Potency,[2],inactive
Cc1ccc(NC(=O)c2nc(S(=O)(=O)Cc3ccccc3F)ncc2Cl)cc1,Potency,[1],active: 2.82 µM
same,Potency,[2],"inconclusive: 26.7 µM [cytotoxic, single point]"
O=C(Nc1ccc(F)cc1)c1nc(S(=O)(=O)Cc2ccccc2)ncc1Cl,Potency,[1],active: 5.62 µM
same,Potency,[3],active: 3.26 µM
same,Potency,[2],active: 18.9 µM
Cn1cnc([N+](=O)[O-])c1S(=O)(=O)c1cccc(Cl)c1,Potency,[3],"inconclusive: 18.4 µM [inhibitor, single point]"
NC(=O)c1c(N)sc2c1CCCCC2,Potency,[1],active: 14.1 µM
same,Potency,[2],inactive
CC1(C)CC(=O)C(C(c2ccc(Br)cc2)C2C(=O)CC(C)(C)CC2=O)C(=O)C1,Potency,[1],"inconclusive: 11.2 µM [inhibitor, partial curve]"
same,Potency,[2],inactive
COC(=O)CCC(=O)Nc1sc(Cc2ccccc2)c(C)c1C(N)=O,Potency,[2],inactive
CC1=NNC(=O)/C1=C\c1cn(-c2ccccc2)nc1-c1ccccc1,Potency,[1],active: 3.16 µM
same,Potency,[2],active: 18.9 µM
O=c1[nH]c2ccccc2n2c(-c3ccccc3)nnc12,Potency,[1],"inconclusive: 3.98 µM [inhibitor, single point]"
same,Potency,[5],inactive
Nc1ccccc1Sc1nc2ccccc2[nH]1,Potency,[1],"inconclusive: 3.55 µM [inhibitor, full curve]"
same,Potency,[2],inactive
CCCNC(=O)c1nnsc1S(=O)c1ccc(Cl)cc1 (stereo not drawn),Potency,[2],active: 21.2 µM
Cc1cccc(C(=O)Oc2csc(=S)n2C(=O)c2cccc(C)c2)c1,Potency,[1],"inconclusive: 3.55 µM [inhibitor, full curve]"
same,Potency,[2],inactive
O=C1C(Cl)=C(N2CCOCC2)C(=O)N1c1cccc(C(F)(F)F)c1,Potency,[1],"inconclusive: 10 µM [inhibitor, partial curve]"
same,Potency,[2],inactive
O=C(Oc1ccc(Br)cc1C(=O)/C=C/c1ccccc1F)c1ccco1,Potency,[1],"inconclusive: 5.01 µM [inhibitor, full curve]"
same,Potency,[2],"inconclusive: 20.6 µM [cytotoxic, single point]"
